# Source: PubChem BioAssay AID686971 (National Center for Advancing Translational Sciences (NCATS), 2013)
# In all, about 360,000 compounds went through this assay and about 7,500 (2.1%) were called active. Inconclusive means that the source gave no clear call. Such entries were picked first, then a sample of the others. Calls come from the whole dose curve; as a rule, active = well fitted cell-killing curve with a large enough effect; inconclusive = small, poorly fitted or top-dose-only effect, or effect the other way, or another doubt; inactive = no such curve, though single readings can be large or run the other way. No potency is given beside an inconclusive call; the fits are too rough.
# Test: qHTS for induction of synthetic lethality in tumor cells producing 2HG: qHTS for the HT-1080-IDH1KD cell line;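 for activity, negative = toxicity: 0% = DMSO wells and -100% = cell-free medium wells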
# Details: HT-1080 IDH1 knockdown viability, ATP luminescence, 48 h; activity, negative = toxicity: at 46.1 µM (top of the series) unless noted
# Method in brief: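 Assay cells: HT-1080 with IDH1 knockdown, 750 per well, RPMI/5% FBS. Exposure: 48 h at 37 °C following 2 h pre-incubation. Read: CellTiter-Glo luminescence; fitted concentration-response, curve class assigned.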
# Potency is the fitted concentration of half-maximal effect; tags give direction and shape of the fitted curve.
SMILES,Potency,"activity, negative = toxicity"
C[N+]12CCC(CC1)C(=C(c1ccccc1)c1ccccc1)C2,"inconclusive [cytotoxic, partial curve, poor fit]",–
Cc1ccc2c(c1)C1CN(C)CCC1N2C(=O)Nc1cccc(C(F)(F)F)c1 (stereo not given),"inconclusive [cytotoxic, single point]",–
COC(=O)C1=C(c2ccc(-c3ccccc3)c(F)c2)C[C@@H]2CC[C@H]1N2C(=O)NCCOc1ccc(OC)cc1,–,inactive: -14.3%
COc1cc(C2c3cc4c(c(O)c3CC3COC(=O)C32)OCO4)cc(OC)c1OC (stereo not given),"inconclusive [cytotoxic, full curve, poor fit]",–
COc1ccc(-c2nn(CCC#N)cc2C(=O)Nc2ccccc2Br)cc1,"inconclusive [cytotoxic, single point]",–
Cc1sc2ncnc(N3CCC(C(=O)Nc4ccc(C#N)c(Cl)c4)CC3)c2c1C,"inconclusive [cytotoxic, single point]",–
CCc1ccc(NC(=S)NC2CC3CCC(C2)N3Cc2ccco2)cc1 (stereo not given),"inconclusive [cytotoxic, single point]",–
CCOC(=O)c1c(C)n(C(C)C)c2ccc(OC(=O)c3ccc(N4C(=O)CCC4=O)cc3)cc12,–,inactive: 3.78%
COc1ccc(C2NCc3ccc4c(c3-n3cccc32)OCO4)cc1O (stereo not given),active: 1.84 µM,–
CC(C)(C)c1cc(C=C(C#N)C#N)cc(C(C)(C)C)c1O,active: 2.06 µM,–
Cc1cc(C(C#N)c2ccc(Cl)cc2)c(Cl)cc1NC(=O)c1cc(I)cc(I)c1O (stereo not given),"inconclusive [cytotoxic, single point]",–
CCOC(=O)C1(CCc2ccccc2)CCN(Cc2cccc3cnccc23)CC1,"inconclusive [cytotoxic, single point]",–
CCn1nc(-c2ccccc2)nc2c(=O)n(C)c(=O)nc1-2,active: 5.8 µM,–
NP(=O)(Oc1ccccc1)c1ccccc1 (stereo not given),–,inconclusive: 30.4%
Cc1ccsc1C(=O)C1CCCN(Cc2cnc(N3CCCC3)s2)C1 (stereo not given),–,inactive: -18.9%
COc1ccc(-[n+]2c(-c3ccccc3)cc(-c3ccccc3)cc2-c2ccccc2)cc1,active: 7.31 µM,–
CCc1ccc(OCCCN=C(C)c2c(O)n(C)c(=O)n(C)c2=O)cc1,"inconclusive [cytotoxic, single point]",–
Cc1ccc(N/N=C/c2c(O)n(-c3ccccc3)c(=O)[nH]c2=O)cc1,active: 2.91 µM,–
Cn1ccc(NC(=O)CCl)n1,"inconclusive [cytotoxic, single point]",–
Cc1nn(Cc2ccc(Cl)cc2Cl)c(Cl)c1C(=O)Nc1ccc(OC(F)F)cc1,"inconclusive [cytotoxic, single point]",–
